± gives the standard deviation of the averaged measurements. This is one part of the list.

The values that follow come from the supplement of paper PMC11417369.

The assay concerns PfAP2-I AP2 domain 3 (GST-tagged). Briefly: gcPBM binding intensity (ln(normalized median fluorescence intensity)); higher = stronger DNA binding. In short, it runs like this: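 The highest Masliner-normalised natural-log median intensity across replicate spots of either probe orientation is reported as binding intensity. GST-tagged P. falciparum DNA-binding domains expressed in E. coli were applied for 1 h to an Agilent 4 × 180k array of primer-extended double-stranded 36-bp intergenic genomic probes plus negative controls, and bound protein was detected with Alexa488 anti-GST antibody and scanned at 488 nm.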
In the case of “CCTCCATTAGATACTTGTACATAAAAGTTTTGATTG [XGTACX_site7428]”, the “gcPBM binding intensity (ln)” value came out at 7.68 ± 0.37.
Next, “AATCATAAAATCATATGTACACATTTTTCCTATGAT [XGTACX_site8799]”: 7.89 ± 0.4; “AGACTTTGTACAAACACACACATGAACACAATATTA [CACACA_site1360]”: 8.07 ± 0.47.
As for “AAAAAAAAAAAATAATAAATAAATAAAAATAAATGA [CACACA_negctrl_site1623]”, the “gcPBM binding intensity (ln)” value was 7.5 ± 0.38.
With “ATTTTATTAATTTGGTGTACTTAATTTATATTTTTC [XGTACX_site4947]” the figure was 7.88 ± 0.22; with “ATGTTGCTCATATGAGTGCACGTTTCATTTCAGTTT [GTGCAC_site9865]”, 10.1 ± 0.11; with “GTGTATTTATGTTATACACACAAAAATATTTTGTAT [CACACA_site4305]”, 8.12 ± 0.4.
For the sequence “AATGTAGGTTTATTTACACACAAATATAGATATATA [CACACA_site6825]”, the “gcPBM binding intensity (ln)” value came out at 7.58 ± 0.53.
With “ATATTTAAAAAAGAGTGTACTCATCTCTTTTAAAAA [XGTACX_site1160]” the figure was 7.5 ± 0.4.
With AATTTATATAATTTTGTGCACAATATTCATGTATAT the figure was 11 ± 0.14.
With “CTATTTCGTATATATAGTACATATTATAACATACTA [XGTACX_site978]” the figure was 8.12 ± 0.42.
Regarding “ACAAAATAAAAACACACACACAAACACAAAAAAATA [CACACA_site3390]”, the “gcPBM binding intensity (ln)” value amounted to 7.99 ± 0.042.
Next, “AGAAGGTAAAAACACACACACACATACAAAAAAAAA [CACACA_site3767]”: 8.28 ± 0.53; “TATATATACAGACACATACACACAAATAAAAAAACA [CACACA_site3413]”: 7.86 ± 0.35.
Consider “AGCTCTTGTCATTTTGCACACACACCGGTATAGGTT [CACACA_site5654]”, for which the “gcPBM binding intensity (ln)” value was 9.63 ± 0.18.
“ATAATTTATATCATTACACACATTTTTTATATTTTT [CACACA_site3450]”: the “gcPBM binding intensity (ln)” value came out at 7.74 ± 0.64.
With “TTTTTGAATGTTTGCACACAAATCTCATAATTTTAG [CACACA_site357]” the figure was 8.64 ± 0.33; with “TAGTTACATAAAATATGTACGTATAATTTTTTTATT [XGTACX_site3847]”, 7.67 ± 0.32; with “TTTATTAAATATATATGTACATATCAAAATGTATAA [XGTACX_site3181]”, 7.89 ± 0.35.
With “TTTTTTTTCTATTGAGCACACATATCACGATTAGTA [CACACA_site7992]” the figure was 8.44 ± 0.45; with “GTTAAACATCTTCTGTGATATGTTAGAATATTATTT [CACACA_negctrl_site687]”, 7.45 ± 0.62.
With “TATTTCACAAACCTTACATGCGGTTTATTTATATAT [TGCATGCA_site123]” the figure was 7.92 ± 0.6; with “TGTTCTAATATTTGTTGTACGTTTACGTTTCTCTCT [XGTACX_site18]”, 7.58 ± 0.47; with “AACATTTTAAAATAATGTACTTGAAAAAAAAACTAC [XGTACX_site8894]”, 7.99 ± 0.51.
Turning to “TATTTAAGAGTATGAACACACATCATACCCATATAA [CACACA_site5911]”, the “gcPBM binding intensity (ln)” value came out at 7.5 ± 0.45.
With “CATATAAATAAATATACATGCATACATACATATATA [TGCATGCA_site713]” the figure was 7.75 ± 0.54; with “TTAATTTATGTTAATGGTACGTAAATGCATTTATTT [XGTACX_site3002]”, 7.89 ± 0.4; with “ATTTAACCAAATAATATATTTAAAAAATAGTCACAT [CACACA_negctrl_site274]”, 7.71 ± 0.56.
Turning to “TTTTATAATTTGAGAACATGCAACATAAATATAAAG [TGCATGCA_site965]”, the “gcPBM binding intensity (ln)” value amounted to 8.21 ± 0.59.
As for “TATAATATATGAAAAAGTACAAATATTTCGATGGTC [XGTACX_site129]”, the “gcPBM binding intensity (ln)” value worked out at 8 ± 0.7.
Next, “TAACCAAAAAAAAATATTTAAAATAAATATATATAT [CACACA_negctrl_site1516]”: 9.05 ± 0.33; “ATAACATACATAACAACACACAATATTTATAGGTAT [CACACA_site6243]”: 7.84 ± 0.57.
With “TATTTTCTCTTAAAAAGTACTCATATATACATTTAT [XGTACX_site7748]” the figure was 7.68 ± 0.3.
With “TTTAGTTCATACTATGCACACTACGTATATTTTTAA [CACACA_site5484]”, the “gcPBM binding intensity (ln)” value came to 8.88 ± 0.16.
With “ATTAATAAGAAGAAAAGTACAAAACAAAAAGATATA [XGTACX_site7473]” the figure was 8.02 ± 0.79.
Next, “CGTTATATATTTTATAGTACTTTTTGTAAATTTTTT [XGTACX_site7682]”: 7.55 ± 0.56; “TTACATATTTTCATTTGTACATATTCATTTTTTTTC [XGTACX_site6988]”: 7.75 ± 0.57; AAATAACCCACGTGCATGCACTTCAATAACTGAACT: 11.3 ± 0.14.
Turning to “TAAAAAAGAAAAAGAGCACACAAAAATATTTAACCT [CACACA_site8885]”, the “gcPBM binding intensity (ln)” value was 7.86 ± 0.76.
With “TATATATTTATATATTGTACACTCTTATGTAGTGTA [XGTACX_site210]” the figure was 7.48 ± 0.33; with “ATTTTTATATTTAATACACACATAAAATCATACCAT [CACACA_site23]”, 8.05 ± 0.52; with “ATGTCAGGGAAAAAAACACACAAGAGTATGATATGT [CACACA_site2180]”, 7.66 ± 0.88.
With “TATGCATATACACAAGCACACATATATATATATATA [CACACA_site8266]” the figure was 9.39 ± 0.38; with “AAAAAAAAAAAAAAAAAAACTAATATAATAAAAATA [TGCATGCA_negctrl_site150]”, 8.97 ± 0.028; with “AAAAAAATAATATAATATTAAATCTTAGTTAATAAA [GTGCAC_negctrl_site658]”, 7.08 ± 0.44.
As for “TTTTTTTTTTTTTTTTCTTTTTTTTTTTTAAATAAG [XGTACX_negctrl_site418]”, the “gcPBM binding intensity (ln)” value stood at 8.04 ± 1.1.
As to “TTTTTTTTTTTTTACACACCCAAATCACATACATAT [CACACA_site6089]”, the “gcPBM binding intensity (ln)” value is 8.62 ± 0.3.
With “TATAATAAATATACTGGTACACAAATATATATATTT [XGTACX_site7741]” the figure was 7.77 ± 0.35; with “AACATCTTATCATCATGTACGAAGCAGTTTTATAAG [XGTACX_site2490]”, 7.74 ± 0.59; with “TGTAATTTTTTACGTTGTACATATATTAACAATATA [XGTACX_site3991]”, 7.8 ± 0.2.
For “ATATTATATTTACATAGTACACTATATGTATATATA [XGTACX_site2101]”, the “gcPBM binding intensity (ln)” value stood at 7.85 ± 0.38.
“TTTACACTTTTTTTTGTACACACTAAAAAGATTAAC [CACACA_site3933]”: the “gcPBM binding intensity (ln)” value came out at 8.05 ± 0.38.
On to “AAAAAAAAAAAAAAAACACACAAGGATCAGATAGAT [CACACA_site7743]”, for which the “gcPBM binding intensity (ln)” value was 8.65 ± 0.6.
Next, “TTTTTCAGAAAAGAAACACACATATAAATATTTATA [CACACA_site7170]”: 7.61 ± 0.55; “TGTTGTTACCTATATACACACATATAAATATTATAG [CACACA_site7180]”: 7.89 ± 0.42; “AATATTATGATATTATGTACATATTAAAAGCACCAC [XGTACX_site6236]”: 10.8 ± 0.7.
Next, “AGGGCATATATATATGCACACATACATATATACATG [CACACA_site9282]”: 9 ± 0.33.
